In article PMC4336329 (PLoS ONE, 2015):
Among all 310,000 compounds or so, about 2,200 (0.71%) showed an effect of 50% or more. The effect is printed as a negative number. This is one part of the list.

Each molecule was assayed against human ether-à-go-go-related gene (hERG) potassium channel (human, UniProt Q12809) (assay: primary screen, population patch clamp on CHO cells stably expressing hERG).
Chain of human ether-à-go-go-related gene (hERG) potassium channel (Q12809 whole entry, looked up): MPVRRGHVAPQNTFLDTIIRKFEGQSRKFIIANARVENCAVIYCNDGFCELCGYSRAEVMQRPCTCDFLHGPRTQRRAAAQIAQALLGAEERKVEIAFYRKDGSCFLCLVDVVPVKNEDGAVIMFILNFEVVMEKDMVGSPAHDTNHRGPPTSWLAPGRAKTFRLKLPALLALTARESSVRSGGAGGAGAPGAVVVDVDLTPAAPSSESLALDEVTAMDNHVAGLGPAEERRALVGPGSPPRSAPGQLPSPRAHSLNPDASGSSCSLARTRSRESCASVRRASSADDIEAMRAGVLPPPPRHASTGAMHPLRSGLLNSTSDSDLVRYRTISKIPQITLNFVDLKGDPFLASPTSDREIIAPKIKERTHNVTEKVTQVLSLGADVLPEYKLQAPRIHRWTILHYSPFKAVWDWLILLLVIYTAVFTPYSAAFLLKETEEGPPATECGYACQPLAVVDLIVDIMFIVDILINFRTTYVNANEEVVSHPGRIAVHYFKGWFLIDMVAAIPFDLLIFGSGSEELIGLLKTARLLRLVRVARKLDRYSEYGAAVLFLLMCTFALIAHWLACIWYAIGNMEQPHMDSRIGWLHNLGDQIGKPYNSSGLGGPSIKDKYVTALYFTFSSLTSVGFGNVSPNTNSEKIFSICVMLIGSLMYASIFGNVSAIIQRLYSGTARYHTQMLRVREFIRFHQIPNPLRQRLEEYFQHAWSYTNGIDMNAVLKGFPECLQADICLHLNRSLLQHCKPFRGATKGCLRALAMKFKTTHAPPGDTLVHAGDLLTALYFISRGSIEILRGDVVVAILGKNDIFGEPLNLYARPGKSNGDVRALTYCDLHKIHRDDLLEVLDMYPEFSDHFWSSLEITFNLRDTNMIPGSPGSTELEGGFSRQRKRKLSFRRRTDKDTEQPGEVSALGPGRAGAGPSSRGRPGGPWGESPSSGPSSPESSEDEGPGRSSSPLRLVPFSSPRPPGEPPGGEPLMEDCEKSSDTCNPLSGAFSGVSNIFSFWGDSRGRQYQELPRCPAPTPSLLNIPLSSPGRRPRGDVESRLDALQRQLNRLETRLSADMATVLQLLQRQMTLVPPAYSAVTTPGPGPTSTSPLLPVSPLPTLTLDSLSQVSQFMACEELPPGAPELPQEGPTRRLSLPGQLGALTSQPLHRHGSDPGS

Row | Compound | hERG current change (%, negative = inhibition) at 1uM [%]
1 | COc1ccc(-c2noc(CCC(=O)NCCCN3CCN(c4ccccc4F)CC3)n2)cc1 | -26.8
2 | COc1ccc(Nc2cc(C)nc(NCc3ccccc3)n2)cc1 | 11.5
3 | COc1ccc(NC(=O)CSCC(=O)N2CCN(C(=O)c3ccco3)CC2)cc1 | 6.41
4 | COc1ccccc1Nc1ncccc1C(=O)O | 5.87
5 | CC1=NN(C(C#N)c2ccccc2C)C(C)(C)C1 (stereo not shown) | 5.75
6 | O=C(CSc1nc2c(c(=O)n1-c1ccc(Cl)cc1)SCC2)NCc1ccco1 | 1.72
7 | COc1ccc(OC)c(NC(=O)CCCc2ccccc2)c1 | 8.73
8 | CCN(C(=O)CN1CC=C(c2ccccc2)CC1)c1c(N)n(Cc2ccccc2)c(=O)[nH]c1=O | 14.5
9 | COc1ccc(Cl)cc1NC(=O)CN1CCc2ccccc21 | -12.6
10 | Cc1noc(NS(=O)(=O)c2ccc(NC(=O)Nc3ccc(Cl)c(Cl)c3)cc2)c1C | 23.6
11 | CN1CCN(C(=O)c2ccc3c(c2)OCCO3)CC1.Cl | 9.77
12 | Cc1nn(C)c(NC(=O)c2ccc([N+](=O)[O-])cc2)c1Cl | 14.7
13 | Cc1nc(-c2cc(C#N)c(=O)[nH]c2C)cs1 | 15.5
14 | Cc1n[nH]c(C)c1SCC(=O)Nc1ccc(F)cc1 | 13.5
15 | O=c1c2cnn(-c3ccc(F)cc3)c2ncn1Cc1ccccc1 | 10.9
16 | CCc1ccccc1Nc1nc(N)nc(COC(=O)CCC(=O)c2ccc(F)cc2)n1 | 7.91
17 | O=C(CCN1C(=O)C2C3C=CC(C3)C2C1=O)NCC1CCCO1 (stereo not shown) | 2.83
18 | O=C(Nc1ccc(OCc2ccccc2)cc1)c1cccc([N+](=O)[O-])c1 | 2.9
19 | O=C(NCC(=O)N1CCCC(C(F)(F)F)C1)c1ccccc1Br (stereo not shown) | 12.5
20 | C#CCOCCOCCOCCNc1nc(N2CCOCC2)nc(N2CCN(C(=O)[C@H](Cc3cc4ccccc4[nH]3)n3cc([C@@H](N)CC(C)C)nn3)CC2)n1.Cl | 14.3
21 | Cc1ccc(C(=O)NCC(=O)OC(C)C(=O)NCCC2=CCCCC2)cc1C (stereo not shown) | 19.6
22 | Cc1nc2nc3c(c(=O)n2[nH]1)CCC3 | 0.193

Row | Compound | hERG current change (%, negative = inhibition) at 1uM [%]
23 | N#C/C(=C/c1cn(CC(=O)O)c2ccccc12)C(=O)Nc1ccccc1 | 10.5
24 | CCOC(=O)c1cnc2cc(-c3ccc(C(C)(C)C)cc3)nn2c1N | 9.35
25 | O=C1CN(C(=O)c2cccc(Br)c2)c2ccccc2N1 | 5.72
26 | O=C(NN1CCOCC1)c1cc(-c2ccc(Br)s2)nc2ccccc12 | 3.62
27 | CCN1C(=O)[C@H]2[C@@H](c3ccc(-c4cccc(Cl)c4)c(OC)c3)N[C@@](C)(C(=O)OC)[C@H]2C1=O.O=C(O)C(F)(F)F | 7.57
28 | COc1ccc(C)cc1NC(=O)COC(=O)c1ccc2ccccc2n1 | 2.38
29 | CC(C)CNc1nc(Oc2ccc(=O)[nH]n2)nc(N(C)C)n1 | 5.55
30 | Cc1ccc(NC(=O)C2CC(=O)N(C(C)C)C2)cc1Cl (stereo not shown) | 45.5
31 | CC(C)(C)NC(=O)Cn1cc(C(=O)c2ccccc2F)c2ccccc21 | 16.6
32 | CC(C)CCn1c(=O)c(C(=O)N/N=C/c2cccc(F)c2)c(O)c2ccccc21 | 21.3
33 | CCOC(=O)/C(C#N)=C/c1cn(CCC(=O)O)nc1-c1cccc(Cl)c1 | 13
34 | O=C(COC(=O)c1cc(S(=O)(=O)N2CCOCC2)ccc1Cl)Nc1ccc2c(c1)OCO2 | 9.05
35 | O=C(/C=C/c1ccco1)Nc1nnc(-c2ccco2)s1 | 3.97
36 | CCN1CCc2c(sc(NC(=O)c3ccc(C(=O)c4ccccc4)cc3)c2C(N)=O)C1.Cl | -7.72
37 | Cc1cc(C)c[n+](C(C)C(=O)c2ccc(Cl)cc2)c1.[Br-] (stereo not shown) | 18.2
38 | COc1ccc(NC(=O)C(CCCCNC(=O)OC(C)(C)C)NC(=O)OCc2ccccc2)cc1 (stereo not shown) | 13.5
39 | CCOc1cccc(C2NCc3ccccc3-n3cccc32)c1O.Cl (stereo not shown) | -3.06
40 | O=C(O)/C=C/C(=O)NCc1csc2ccccc12 | 7.98
41 | N#C/C(=C/Nc1ccccc1C(=O)O)C(N)=O | 8.71
42 | Clc1ccc(-c2nc3cnccn3c2Nc2ccc3c(c2)OCO3)cc1 | 17.1
43 | Cc1ccc(NC2=CC(=O)CC(C)(C)C2)cc1Cl | 13.1
44 | CC(Cc1cnccn1)NCc1c(C(=O)N2CCCCCCC2)nc2ccc(Cl)cn12 (stereo not shown) | 0.336

Row | Compound | hERG current change (%, negative = inhibition) at 1uM [%]
45 | CSc1nc(NC(C)(C)C)nc(Oc2ccc(=O)[nH]n2)n1 | 10.9
46 | Cc1ccc(NC(=O)c2ccc3c(c2)C(=O)N(c2cc(C)ccc2C)C3=O)nc1 | 17.4
47 | CC1(c2ccccc2)CC2CC(c3ccccc3)N1O2 (stereo not shown) | 10.1
48 | Cc1sc(-c2ccncc2)nc1OC(=O)c1ccc(Cl)cc1 | -3.63
49 | O=C1N(Cc2cccc(Cl)c2)C[C@@H]2C[C@@H](c3cccn3-c3ccccn3)N3CCC[C@@]123 | -56.9
50 | CC(C)CCNc1ncnc2c1cnn2Cc1ccccc1Cl | 5.77
51 | O=C(NCCOCCOCCNC(=O)c1cccnc1)c1cccnc1 | 13
52 | CCCc1cc(=O)oc2cc(OCC(=O)N3CCc4ccccc43)ccc12 | 0.72
53 | CCC(=O)N/N=C(\C)CC(=O)Nc1ccc(F)cc1 | 4.11
54 | COc1cc2c(cc1OC)C(c1cccs1)N(C(=O)c1cccc(S(=O)(=O)N(C)C)c1)CC2 (stereo not shown) | -37.6
55 | CCOc1ccc(CN2CCNC(=O)C2CC(=O)NC2CCOCC2)cc1 (stereo not shown) | -14.1
56 | Cc1sc(NC(=O)c2ccco2)c(C(c2cccnc2)N2CCN(c3ccc(F)cc3)CC2)c1C (stereo not shown) | 9.27
57 | Cc1nnsc1Sc1ccccc1C(=O)O | 11
58 | CC1=CC(=O)C=CC1(C)C(Cl)Cl (stereo not shown) | -1.14
59 | COc1cccc(NC(=O)N2CCOCC2)c1 | -13.1
60 | COc1ccc(-n2nc(C(=O)Nc3ccc4c(c3)OCO4)c3ccccc3c2=O)c(OC)c1 | 10.9
61 | COC(=O)/C(C#N)=C/c1c(N2CCCCCC2)nc2ccccn2c1=O | 11.1
62 | O=C(O)C(=O)O.c1ccc(CCN(Cc2ccccc2)C2CCN(C3CCCC3)CC2)cc1 | -68.9
63 | CCOc1ccc(OCc2cccc(C(=O)N(CC)CC)c2)cc1 | -26.9
64 | Cc1cnc(C(=O)OCC(=O)Nc2ccc(C)c(S(=O)(=O)N3CCCCC3)c2)cn1 | 12.2
65 | O=C(NCc1ccco1)c1ccc(Cn2cc([N+](=O)[O-])cn2)o1 | 8.44
66 | O=C(CSc1nnc(-c2ccccc2)n1Cc1ccccc1)N1CCOCC1 | 4.4

Row | Compound | hERG current change (%, negative = inhibition) at 1uM [%]
67 | CC(=O)Oc1ccc(S(=O)(=O)c2ccc(OC(C)=O)cc2)cc1 | 14.1
68 | COc1ccc2[nH]cc(C(=O)CN(C)CCc3ccc(OC)c(OC)c3)c2c1 | -60.6
69 | Cc1ccc(NC(=O)c2cccc(-n3cnnn3)c2)cc1Cl | -5.97
70 | O=C1NCCC/C1=N/Nc1ccc(F)cc1 | 9.32
71 | Cc1ccc(NC(=O)CNC(c2ccccc2)c2ccccc2)c(F)c1 | 6.13
72 | Cc1ccc(S(=O)(=O)N(CC(=O)NCCSCc2ccco2)c2cc(C)ccc2C)cc1 | 6.33
73 | Cc1nc(-c2cccc(NS(=O)(=O)c3ccc4ccccc4c3)c2)cs1 | 5.6
74 | Cc1ccn(CCC(=O)Nc2ccc3c(c2)OCO3)n1 | 14.8
75 | CCCn1c(-c2cccs2)nc2c1c(=O)[nH]c(=O)n2Cc1ccccc1 | 7.22
76 | Nc1cc(N)nc(SCC(=O)c2ccccc2)n1 | 12.4
77 | CSCCC(NC(=O)CCC(=O)OC1CC[C@H]2[C@@H]3CC[C@H]4CC(=O)CC[C@]4(C)[C@H]3CC[C@]12C)C(=O)O (stereo partly shown) | 16.1
78 | C=CCNC(=O)CN(CCc1ccccc1)S(=O)(=O)c1ccccc1 | 6.87
79 | CCOc1cc(-c2c(C#N)c(N)nc3c2CCCC3C)ccc1O (stereo not shown) | -3.33
80 | CC(C(=O)N1CCCCC1)n1sc2ccccc2c1=O (stereo not shown) | 8.07
81 | O=C(NC(=S)Nc1ccc(CN2CCOCC2)cc1)c1ccco1 | 11.2
82 | CCN(CC)c1ccc(/C=N/NC(=O)Cc2nnc(NC(=O)Nc3ccccc3)s2)cc1 | 11.1
83 | CCOc1ccc(NC(=O)Cc2ccc(S(=O)(=O)N3CCOCC3)s2)cc1OCC | 6.72
84 | Cc1cc(C)cc(NC(=O)C2C3C=CC(O3)C2C(=O)O)c1 (stereo not shown) | 23.9
85 | CCOC(=O)c1cnc(SCC#N)nc1N | 18.1
86 | Cc1cccc(OCC(O)CN2CCN(S(=O)(=O)c3ccc(C)cc3C)CC2)c1 (stereo not shown) | 2.67
87 | COc1ccc(-n2ncc3c(NCC4CCCO4)ncnc32)cc1 (stereo not shown) | 28.8
88 | CCC(=O)NCCC(c1ccco1)c1ccccc1OC (stereo not shown) | 13.9
